Data taken from PubChem BioAssay AID1240 (Sanford-Burnham Center for Chemical Genomics, 2008).
The campaign covered roughly 50,000 compounds. About 800 (1.6%) showed an effect of 50% or more. The list shows a part of the results.

target: Bcl-2-like protein 10 (Homo sapiens) (UniProt Q9HD36); test: TR3 peptide-Bcl-B binding displacers, biochemical primary FP assay, phenotype converters (AID 1240); conditions: GST-Bcl-B / FITC-TR3 peptide fluorescence polarization; stronger effect = higher value; compound at 3.75 mg/L;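 further: 0% = Bcl-B with tracer peptide and DMSO and 100% = tracer peptide lacking Bcl-B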
Sequence of UniProt Q9HD36 (Q9HD36 whole entry, looked up): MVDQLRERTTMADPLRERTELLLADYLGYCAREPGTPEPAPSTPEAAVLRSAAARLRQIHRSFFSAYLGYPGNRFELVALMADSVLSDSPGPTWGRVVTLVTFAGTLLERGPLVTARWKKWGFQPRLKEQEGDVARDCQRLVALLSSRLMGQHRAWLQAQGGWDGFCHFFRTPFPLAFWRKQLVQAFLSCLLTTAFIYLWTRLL

Row | SMILES | displacement [%]
1 | CCOc1cc(C2C3=C(CC(C)(C)CC3=O)OC3=C2C(=O)CC(C)(C)C3)ccc1OCc1ccccc1F | -8.4
2 | CC(=O)NC1=C(Cl)C(=O)c2ccccc2C1=O | 23
3 | CCc1ccccc1NC(=O)COc1ccc(C)cc1 | 3.4
4 | COc1ccc(NC(=O)c2ccccc2C)cc1OC | -3.5
5 | Oc1ccc(-n2c(O)c(/C=C3\C=Nc4ccccc43)sc2=S)cc1 | -23.8
6 | CCCOC(=O)C1=C(C)N(CC)C(=O)NC1c1ccccc1[N+](=O)[O-] (centres undefined) | -12.8
7 | Oc1ccc(/C=N/Nc2nc(-c3ccccc3)cc(-c3ccc(Br)cc3)n2)c(O)c1 | -7.4
8 | O=[N+]([O-])c1cc(-n2ncnc2-c2cccc(Cl)c2)ccc1F | 14.6
9 | O=C(N/N=C/c1cc([N+](=O)[O-])ccc1O)Nc1ccccc1 | -6.2
10 | CCOC(=O)c1ccc(Nc2cc(-c3ccccc3)ncn2)cc1 | -3.5
11 | COc1cccc(OCCOc2ccc(/C=C3/SC(=S)NC3=O)cc2)c1 | 5.1
12 | Cc1nc(NC(=O)/C=C/c2ccc(F)cc2)sc1C | -4.7
13 | CS(=O)(=O)N(CC(=O)Nc1ccc(Cl)cc1)c1ccc(Br)cc1 | 3.3
14 | Cn1c(SCC(=O)N/N=C/c2ccc(O)cc2O)nc2ccccc21 | -11.7
15 | CN(C)Cc1c(O)ccc2c(=O)c(-c3ccc(Cl)cc3)coc12 | -8.9
16 | CCCCCC(=O)NNC(=O)c1ccc(F)cc1 | 0.5
17 | CCOc1cccc(C2C(C(=O)Nc3ccccc3OC)=C(C)NC3=C2C(=O)CCC3)c1 (centres undefined) | 7.6
18 | O=C(Nc1ccc(S(=O)(=O)N2CCCCCC2)cc1)c1cccc([N+](=O)[O-])c1 | 7.7
19 | CCCOc1cccc(C(=O)Nc2ccc(NC(=O)c3ccc(Cl)cc3Cl)cc2)c1 | 7.5
20 | CC(=O)NS(=O)(=O)c1ccc(NC(=O)CCC2CCCC2)cc1 | -0.4
21 | CCOC(=O)C1CCN(C(=O)Nc2ccc(Cl)c(Cl)c2)CC1 | 9.4
22 | O=C(NCCC(c1ccccc1)c1ccccc1)c1cc2ccccc2oc1=O | -8.4
23 | COc1cccc(C2/C(=C(/O)c3ccccc3)C(=O)C(=O)N2c2nc3ccccc3s2)c1 (centres undefined) | 4.5
24 | O=C(NCCN1CCOCC1)c1cc(-c2ccccc2)nc2ccccc12 | -1
25 | COc1ccc(N(CC(N)=O)S(C)(=O)=O)c(OC)c1 | -6.1
26 | CCC(/C=C1\N=C(c2cccc(F)c2)OC1=O)=C\c1ccccc1 | -10.7
27 | Cc1ccc(/C=C2\SC(=S)N(CCC(=O)NNC(=O)c3ccccc3O)C2=O)cc1 | 10
28 | CCOc1ccc(NC(=O)C2=C(C)NC(=S)NC2c2ccc(Br)cc2)cc1 (centres undefined) | 5.7
29 | COc1ccccc1NC(=O)C1=C(C)NC(=O)NC1c1ccc([N+](=O)[O-])cc1 (centres undefined) | -2.8
